By % Inhibition is commonly meant the relative decrease from the control value, in per cent.

42 compounds from ChEMBL document CHEMBL4888484, “Replenishing the malaria drug discovery pipeline: Screening and hit evaluation of the MMV Hit Generation Library 1 (HGL1) against asexual blood stage Plasmodium falciparum ,using a nano luciferase reporter read-out” (2022) can be followed below.

Structures are written as SMILES. Out of some 150,000 compounds screened, about 540 (0.36%) showed an effect of 50% or more. This is one part of the list.

For this assay, the system named is Plasmodium falciparum. Briefly: Primary screen in NF54 nanoGlo assay, in single point, at 2uM, 72h; a lower Z score goes with more inhibition. The note with it: timepoint 72 hour. Type of assay: functional, Erythrocyte.
With `COc1cccc(C(N[C@H]2CCOC2)c2cccc(OC)c2)c1`, the “% Inhibition” value was -16% and the Z score is recorded as 2.55.
Consider `Cc1nc(CN2CCN(c3ccccc3F)CC2)[nH]c1C`, for which the “% Inhibition” value is on record as -10% and the Z score was found to be 2.01.
For `COc1ccc(N2CCN(C(=O)[C@H]3CC(=O)N(C4CC4)C3)CC2)cc1` the same measures were -1% and 0.12.
The corresponding values for `CN(CCCCc1ccccc1)C(=O)C1CCCC1N` (centres undefined) are -3% and 0.62.
For `O=C(NCc1cccc(N2CCCC2)c1)[C@H]1CC(=O)N(Cc2ccncc2)C1` the same measures were -11% and 1.76.
Turning to `CC(=O)N1CCN(C(=O)[C@H](C2CCCC2)N2CCN(C(=O)c3cccs3)CC2)CC1`, the “% Inhibition” value stood at 3% and the Z score is given as -0.33.
For `CC(C)CN(C1CCOCC1)C1CN(Cc2ccc(F)cc2)C1`, the “% Inhibition” value was -18% and the Z score is reported as 3.48.
With `CC1CN(CC(=O)Nc2sc3c(c2C(N)=O)CCC3)CC(C)O1` (centres undefined), the “% Inhibition” value is -13% and the Z score is listed as 2.18.
For `CNc1cc(C(=O)N(C[C@H]2COc3ccccc3O2)C(C)C)ccn1` the same measures were -3% and 0.59.
For `O=C1C[C@@]2(CCN(C(=O)C3(Cc4cccc(F)c4)CCCCC3)C2)CN1` the same measures were -33% and 3.84.
The corresponding values for `CN(C)C(=O)c1c(O)cc(F)cc1F` are -10% and 1.17.
As for `Cc1ccc(S(=O)(=O)NCC2(c3cccs3)CC2)c(C)c1`, the “% Inhibition” value is -11% and the Z score came out at 1.45.
The corresponding values for `Cc1nnc(-c2ccc(Cl)cc2)nc1O` are 0% and 0.05.
As for `Cc1nnccc1C(=O)NC1(CO)CCCCCCC1`, the “% Inhibition” value is -7% and the Z score was 1.41.
Consider `Cc1cc(C(=O)N2CCN(c3nccs3)CC2)c2ccccc2n1`, for which the “% Inhibition” value is reported as -10% and the Z score is on record as 1.26.
For `N#Cc1ccc(-c2ccc(OS(=O)(=O)c3ccccc3)cc2)cc1` the same measures were -10% and 1.04.
The corresponding values for `Cc1nc(C)c(F)c(N2CCC(O)(Cc3ccccn3)CC2)n1` are -15% and 1.87.
For `Cc1noc(C)c1CCC(=O)N1CC(n2ccnn2)C1` the same measures were -5% and 0.76.
As to `CCN(CC)c1onc(-c2ccccc2)c1CN(C(=O)c1ccc(F)cc1)C1CC1`, the “% Inhibition” value was -1% and the Z score came out at 0.12.
In the case of `CCOCCN(C)C(=O)CCCn1cncn1`, the “% Inhibition” value was found to be 3% and the Z score is on record as -0.46.
For `Cc1cc(Br)oc1C(=O)NCc1ccc2c(c1)OCO2` the same measures were -8% and 1.58.
For `Cc1cc(=O)c(C(=O)N(C)Cc2nccs2)cn1C1CC1` the same measures were -3% and 0.36.
For `Brc1ccc2c(c1)CCCC[C@@H]2NCc1cocn1` the same measures were 1% and -0.12.
In the case of `CCOCCCNc1cc([C@H]2CCOC2)nc(C)n1`, the “% Inhibition” value is 2% and the Z score is -0.27.
For `C[C@H](O)c1cn(C2CN(C(=O)C(C)(C)Oc3ccc(Cl)cc3)C2)nn1` the same measures were -3% and 0.45.
For `Cn1cc(Cl)cc1C(=O)N1CCCN(CC2CCC2)CC1`, the “% Inhibition” value was -4% and the Z score worked out at 0.65.
The corresponding values for `C[C@@H](CC(F)F)C(=O)N1CCCCCC1` are -13% and 1.75.
The corresponding values for `COC(=O)c1c(NC(=O)c2cc(C)c(F)c(C)c2)nc2n1CCC2` are -14% and 1.89.
The corresponding values for `O=C1CCC(c2ccccc2)(c2ccccc2)CN1C1CCOCC1` are -6% and 0.53.
`O=C(N[C@@H]1COCC[C@@H]1Oc1ccc(F)cc1)c1ccon1`: the “% Inhibition” value is recorded as 1% and the Z score was -0.17.
The corresponding values for `CCN1C[C@H](CN(C)C(=O)CN2C(=O)NC3(CCCC3)C2=O)Oc2ccccc21` are 6% and -0.87.
The corresponding values for `CC12CN(S(=O)(=O)c3ccccc3)CC(C)(CN(S(=O)(=O)c3ccccc3)C1)C2O` (centres undefined) are 11% and -1.43.
For `O=C(c1cc(F)c(F)c(O)c1F)N1CCOCC12CCCC2` the same measures were 3% and -0.31.
For `CC(C)(C)OC(=O)N1CCC(C(=O)O)C2C1C2(F)F` (centres undefined), the “% Inhibition” value was -4% and the Z score was 0.78.
For `Cc1noc(C)c1CNC(=O)[C@H]1CCc2nn(C)c(=O)cc2C1` the same measures were -7% and 0.87.
The corresponding values for `CC1CCC(NC(=O)Cn2nnc(-c3ccncn3)n2)CC1` (centres undefined) are 5% and -0.68.
For `Cc1cc(C)c(CCNC(=O)N2CCNC(=O)CC2)c(C)c1` the same measures were 22% and -2.53.
For `Cc1nn(C)c(C)c1C(O)CNC(=O)N[C@@H]1CCCOC1` (some centres undefined), the “% Inhibition” value is on record as -13% and the Z score was determined as 1.33.
Take `CCNC(=O)Nc1c[nH]nc1[C@H]1CCCN(C(=O)c2cccc(OC)c2)C1`: the “% Inhibition” value was -10% and the Z score was 0.88.
The corresponding values for `COc1ccc2nc(N3CC(C(=O)Nc4nc(C)c(C(=O)N(C)C)s4)C3)sc2c1` are 8% and -1.26.
In the case of `O=S(=O)(Oc1cccc2cccnc12)c1ccc2ccccc2c1`, the “% Inhibition” value is on record as -11% and the Z score turned out to be 1.75.
The corresponding values for `C=C(C)COc1ccccc1CNCCNC(=O)c1ccncc1` are -11% and 1.29.
